The supplement of paper PMC11417369
± gives the standard deviation of the averaged measurements. The list shows a part of the results.

tested on: PfAP2-G AP2 domain (GST-tagged); assay: gcPBM binding intensity (ln(normalized median fluorescence intensity)); higher = stronger DNA binding
How it was run: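 GST-fused DNA-binding domains of P. falciparum, expressed in E. coli, were applied at about 25 μg on average for 1 h to an Agilent 4 × 180k array of primer-extended double-stranded 36-bp intergenic genomic probes and negative controls. Binding intensity is the highest Masliner-normalised natural-log median intensity across replicate spots of either probe orientation, measured with Alexa488 anti-GST antibody and a 488 nm scan.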

Sequence	gcPBM binding intensity (ln)
TATGTAACACATACTTGTACATATATAATTTTTTTA [XGTACX_site6251]	11 ± 0.59
ATAATATATATATATACGCACACTTATGTACGGATT [CACACA_site2120]	11.2 ± 0.77
TTCTATATAATTCAAACATGCACAGGAAATATTATA [TGCATGCA_site290]	10.19 ± 0.057
AACAATGTTTTCTTGTGTACACATCATTAAAGAAAA [XGTACX_site4726]	11.6 ± 0.88
TTATTTTTACAATTTTAATAATAATACTAAAACAAA [XGTACX_negctrl_site538]	9.89 ± 0.39
ATATATATATCACGCACACACGAATTTTAAATATAT [CACACA_site5691]	10.2 ± 0.29
TCTTTTGCCCAAAAAGGTACACACCACAATTTAAAT [XGTACX_site1482]	11.4 ± 0.88
TATTGTATGGTAGGATATGATGTTATTTGTTATAAT [CACACA_negctrl_site202]	9.95 ± 0.099
TAGTTTTTTATAAAATTATTTATATAAAGGTAAAAA [CACACA_negctrl_site490]	9.99 ± 0.16
ATAAGAAAAGGACACACACACAAAAAAAAAAAAAAA [CACACA_site7351]	11.2 ± 0.98
TGTTCTTATTTTATAAGCATATAATTAATCATAATG [CACACA_negctrl_site1493]	9.775 ± 0.035
TTTATTTATTATTGTTGTACACTTTTTATAAAAAAA [XGTACX_site5114]	11.5 ± 0.87
ATGTATATAATATTATGTACATATATGAAATATTTT [XGTACX_site8168]	11 ± 0.57
ATATATTATATATATTTTAAGTAATTTGCAAAAAAT [GTGCAC_negctrl_site361]	9.81 ± 0.13
ATTTAAAAGAAATAATGTACGAATCATATTTGATAT [XGTACX_site1785]	10.6 ± 0.42
AATATATTATAATATACACACATATATGCTCTTTAA [CACACA_site4131]	9.87 ± 0.028
ATTTATTAACCATATACACACATATATTTGTATTTA [CACACA_site6744]	9.96 ± 0.18
ATAGTATCTGGTAGCTGTACGAGTCGTAGAGTGCAG [XGTACX_site2020]	11.3 ± 0.75
ATATATATATATATATGTACGTACTCAGTTATGCCT [XGTACX_site453]	11.7 ± 1.2
TTCCCTAATATTTGTTGTACTTGTTATATTTTTTTT [XGTACX_site5994]	11.3 ± 0.76
TATATTTGTAAGAAGAGTACTAAAAAAAGAATAAAG [XGTACX_site8704]	11.3 ± 0.63
TAATATCAATTTTTATGTACTTATATATATATATAT [XGTACX_site5879]	11.3 ± 0.84

Sequence	gcPBM binding intensity (ln)
AGTAGTCTGGAGAAGAGTACACAGTATCTGGTAACA [XGTACX_site2032]	11.4 ± 0.97
ATTGAGAGAAAAAAATGTACTTGATCAAAATGGATA [XGTACX_site1649]	10.9 ± 0.5
TTATTATATAAAGTTTCACACATTATTTGTTCAAAC [CACACA_site5218]	10 ± 0.11
ATATGAAGTATCGAATTAAGGGCAACAAATAAATTA [CACACA_negctrl_site1116]	10.4 ± 0.35
AAAAAAATAATATAAATAATGAAAAGATATAAATAA [GTGCAC_negctrl_site432]	9.65 ± 0.22
AATATAAGCAAATACACACACACATATAAATATGTA [CACACA_site7741]	10 ± 0.11
TACATATATAAATATGTACACACATATGTATGATCT [CACACA_site9284]	11.2 ± 0.81
TTATATATGACTAACGGTTTTTTTTTTTTTTTTTTT [CACACA_negctrl_site576]	10.7 ± 0.37
GTGTATATATGTTATACACACAAAAATATTTTGTAT [CACACA_site265]	10.1 ± 0.057
AAAAATCATATAGGTTGTACGGGTAGTTTATTTTAT [XGTACX_site6936]	11 ± 0.54
ATTTTGTAAAAGGTCATACACACATATTCAAAAGAA [CACACA_site2946]	10.3 ± 0.29
ACAAAAAAAAAAAAAAAAAAAAAAAAAAAATAATAA [CACACA_negctrl_site1640]	9.62 ± 0.18
AAAATATATTAAGGCACACACATACATATTTATATA [CACACA_site7707]	10.1 ± 0.14
AGATCAATAATGACAAGTACACAAAATAACATTTAA [XGTACX_site6968]	11.4 ± 0.91
TACATACAGAAACACACACACACATATATATATATA [CACACA_site2919]	10.1 ± 0.3
AAAGAATAATTAAATACACACATATTACAGTAAAAA [CACACA_site2450]	10.03 ± 0.092
CGCACCCACAGACACACACACACATATATATATATA [CACACA_site2202]	10.2 ± 0.3
AATATATATTAAATATGTACTTATTTTTTGGTTGCT [XGTACX_site3613]	11.5 ± 0.86
TATAAATTAAGATAACGTACATATAATAATATAAAC [XGTACX_site487]	11.2 ± 0.59
TGCATAATTAAAAATGGTACACTGTATTTATAATAT [XGTACX_site1575]	11.2 ± 0.85
TGTACAGTATATACAACACACATTTGTATAAATATA [CACACA_site1002]	10.46 ± 0.035
TGTACACCCAGAAATGCACACACATATATATATATA [CACACA_site8716]	10.9 ± 0.49

Sequence	gcPBM binding intensity (ln)
TATATATATTTTATGTGTACTCAATGTTATAACGCA [XGTACX_site8360]	11.6 ± 1
AATAGAGTTGAATGCACACATACAAATTTTTAGTTT [CACACA_site3564]	9.79 ± 0.21
AAAAAAATACATACGTGTACCCACATATATGTATCT [XGTACX_site5319]	11.3 ± 0.77
TTGAAGGTGGCAATGTGTACATAGAATAACCAGTGC [XGTACX_site4738]	11.4 ± 0.91
ACAATTGCATCTATCACACATACATACATACATACA [CACACA_site5063]	10.6 ± 0.42
AAAAAAAAAAAACATTGTACGCACATTTTATATGTC [XGTACX_site6974]	11.6 ± 0.93
GTTTCTACTTATATAACAGGACACGTGTGAATAATT [TGCATGCA_negctrl_site430]	10.6 ± 0.44
GCAAGTCCATGAACGGTGCAGGAATTAACAAAAATA	10.2 ± 0.28
TCATGGCCATTTTCAGTGCATATGTGTATTTAATAT [GTGCAC_site9529]	10.4 ± 0.2
AATAAAAATAAAAGCACACATAAATATATATATATT [CACACA_site1441]	9.82 ± 0.042
ATGAAGAAATAAATGTGTACATATCTTAGTATCATA [XGTACX_site8658]	11.5 ± 0.76
TATTTAATTTATACACGTACATATATAAATAATACA [XGTACX_site1148]	11.4 ± 0.91
TTATAATTTTTCTATTGTACATTTAATAATATATAT [XGTACX_site7326]	10.9 ± 0.47
TTATACATATTTATATGTACGTAATATAATATTAAT [XGTACX_site6520]	11.3 ± 0.91
ATATTTTTTTTTGTTACACACGTTTTTTAAAAAATG [CACACA_site1603]	10.6 ± 0.21
TCATAAAAATAAAAATGTACACATTAGAAATATTGT [XGTACX_site3671]	11.2 ± 0.67
AGAAATAAAAAAAAAAATATATATATTATATATATA [CACACA_negctrl_site1799]	9.49 ± 0.35
TATAATGATGATGATAGTACGTATTAGTATAAAAAA [XGTACX_site9]	11.1 ± 0.72
TCATGGGTGTATTTCACACACGGATAATCATTTATA [CACACA_site4663]	10.2 ± 0.21
TTACTATAAAATGTCACACATTCTGTTTCCTTACTT [CACACA_site5714]	10.09 ± 0.042
ATTATAAAAGAATTTTTTTTTATTTCATTAAAATAT [CACACA_negctrl_site1137]	9.37 ± 0.2
AGCACATAAATAATTAAACACACATTGTTCTAGACA [CACACA_site8746]	9.74 ± 0.19

Sequence	gcPBM binding intensity (ln)
TCAACAAAATTGAAGGAACACACATACATATATATA [CACACA_site7940]	10 ± 0.15
TATAAATATCTGTATGCACACATTTTTTTTGGAAAA [CACACA_site4734]	10.2 ± 0.18
ATTTTTTCTCATAAAAACGTGAACGTTTATTTTACA [CACACA_negctrl_site1041]	10 ± 0.12
CAACTTTATACATATAGTACAAGTTATATTTTATTA [XGTACX_site6651]	10.8 ± 0.49
TACCCTTGCATGTAGGTGCAATTTTTTTTTTTTTTT	10.2 ± 0.2
TTCGTAATTTATATCACACACATATATATATAATAA [CACACA_site3115]	10.1 ± 0.34
TATATATATATATATTGTACTATATAGTATCTTTTT [XGTACX_site1646]	11 ± 0.52
TATATATTTTCTTTTGCACACTGTTTTCCTTTTTTT [CACACA_site2739]	10.035 ± 0.007
AACGATTTACATCACTGTACTAATGATATACCTCAT [XGTACX_site7463]	11.2 ± 0.95
AAAGAAATAAGGTGCACACATATACATATATATATA [CACACA_site429]	10.5 ± 0.59
TTTAAAAAAAATTCATATTATATATATATATATTAT [CACACA_negctrl_site1733]	9.2 ± 0.15
CTTTCCATATATGATAGTACACGATAAAAAAAAAAA [XGTACX_site5772]	11.2 ± 0.95
TTCTTTTTTATTTTTCAACACACATAATAAATTTCT [CACACA_site8253]	10.1 ± 0.11
TAATAATAGTACTGACATCAAAATCTTATTAAAAAT [GTGCAC_negctrl_site308]	11 ± 0.83
GCTATATATTAATGTTGTACTTTATGTTCATATTGT [XGTACX_site3619]	11.2 ± 0.75
AAAATGTACGCATATACACACACATAAATAGATACG [CACACA_site9124]	11.6 ± 0.92
TTTATGTATTTAATATGTACATATAGTTGTTAATAA [XGTACX_site1938]	11.2 ± 0.81
AAGAAATAAATACATACACACATATATAAATAAATA [CACACA_site7559]	9.915 ± 0.092
AAGAAATAATTATTATGTACTTAAAAAAATTAAAAT [XGTACX_site7423]	11.3 ± 0.68
TATAAAATTTACGTGTGTACATATTTAATAATTTTT [XGTACX_site5001]	11.4 ± 0.83
AAGATATGAGGGAATACACACATATTTATATTTATA [CACACA_site6846]	9.845 ± 0.092
ACATCATAAAATTTATGTACACATTTTTAATTATAC [XGTACX_site7759]	11.5 ± 0.73
